Laboratory results: article PMC4336329 (PLoS ONE, 2015)
Hit rate of the full screen: of about 310,000 compounds, about 14,000 (4.5%) showed an effect of 50% or more. Effects have a minus sign here. The list shows a part of the results.

target: human ether-à-go-go-related gene (hERG) potassium channel (human, UniProt Q12809); experiment: primary screen, population patch clamp on CHO cells stably expressing hERG
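Also: peak tail current of the secondary pulse compared with the same well before compound.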

Sequence of human ether-à-go-go-related gene (hERG) potassium channel (Q12809 whole entry, looked up): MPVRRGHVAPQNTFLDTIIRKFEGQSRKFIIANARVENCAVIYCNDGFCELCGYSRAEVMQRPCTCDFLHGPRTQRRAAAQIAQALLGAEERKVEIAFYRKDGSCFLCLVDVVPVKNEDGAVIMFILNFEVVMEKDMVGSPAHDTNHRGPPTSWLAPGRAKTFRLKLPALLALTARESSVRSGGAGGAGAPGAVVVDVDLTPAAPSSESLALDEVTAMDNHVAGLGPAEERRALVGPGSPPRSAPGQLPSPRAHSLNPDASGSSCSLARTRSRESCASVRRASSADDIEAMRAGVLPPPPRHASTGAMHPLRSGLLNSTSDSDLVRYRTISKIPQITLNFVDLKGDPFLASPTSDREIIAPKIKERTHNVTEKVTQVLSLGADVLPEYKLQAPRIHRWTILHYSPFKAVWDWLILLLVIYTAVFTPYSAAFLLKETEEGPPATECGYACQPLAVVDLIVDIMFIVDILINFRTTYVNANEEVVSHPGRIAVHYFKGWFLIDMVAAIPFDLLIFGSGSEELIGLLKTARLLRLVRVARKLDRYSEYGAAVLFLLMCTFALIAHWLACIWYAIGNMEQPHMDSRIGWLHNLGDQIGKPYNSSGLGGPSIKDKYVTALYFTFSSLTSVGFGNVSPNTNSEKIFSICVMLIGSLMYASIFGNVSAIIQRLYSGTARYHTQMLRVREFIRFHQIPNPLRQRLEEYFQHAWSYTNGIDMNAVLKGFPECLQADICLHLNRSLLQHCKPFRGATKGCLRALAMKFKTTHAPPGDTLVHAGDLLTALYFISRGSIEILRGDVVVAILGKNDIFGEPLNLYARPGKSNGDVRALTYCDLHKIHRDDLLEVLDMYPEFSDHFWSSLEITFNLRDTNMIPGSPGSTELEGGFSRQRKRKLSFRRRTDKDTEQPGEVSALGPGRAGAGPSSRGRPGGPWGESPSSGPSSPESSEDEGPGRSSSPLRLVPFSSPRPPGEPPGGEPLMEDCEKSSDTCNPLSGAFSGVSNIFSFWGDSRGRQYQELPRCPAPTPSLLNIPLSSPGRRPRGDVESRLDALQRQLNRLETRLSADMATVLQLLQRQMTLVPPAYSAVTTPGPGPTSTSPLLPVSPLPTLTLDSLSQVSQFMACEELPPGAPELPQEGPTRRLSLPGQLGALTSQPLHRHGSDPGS

Compound | hERG current change (%, negative = inhibition) at 10uM [%]
Cc1ccccc1SCC(=O)Nc1ccc(N2CCOCC2)cc1 | 1.82
CCC(=O)Oc1ccc(/C(CC)=C(\CC)c2ccc(OC(=O)CC)cc2)cc1 | 12.1
CCN1CCN(c2nc3c(c(=O)[nH]c(=O)n3C)n2CCCSc2ncccn2)CC1 | -5.43
COc1cc(NC(=O)c2ccc(Br)cc2)ccc1NC(=O)c1cc2ccccc2o1 | 5.79
Br.C=CCN1C2=NCCCN2c2ccccc21 | -13.9
Cl.O=C(Cn1c(NCCCl)nc2ccccc21)c1ccc(Br)cc1 | -31.6
NC(=S)N/N=C/c1ccc([N+](=O)[O-])cc1 | -8.06
Cc1cnc(C(=O)OCC(=O)N(Cc2ccccc2)C(C)C)cn1 | 20.4
Cc1cccc(NC(=O)CSC2=NN3CCCC(=O)N=C3S2)c1C | -14
Cl.NCC1(c2ccc3c(c2)OCCO3)CCCC1 | -10.4
COc1cc(NC(=O)CSc2nnc3ccc(-c4cccnc4)nn23)cc(OC)c1 | -9.05
COc1ccc(CN2C(=O)c3cccc4cccc2c34)cc1F | 17.7
CCCC(=O)Nc1nnc(SCC)s1 | 15.9
COc1cc(C2C(C(C)=O)=C(O)C(=O)N2Cc2ccccc2)ccc1O (centres unmarked) | 16.2
CC(Nc1cc(N2CCNCC2)ccc1[N+](=O)[O-])c1ccccc1 (centres unmarked) | -7.49
N#CCCN(C(=O)COC(=O)CNC(=O)C12CC3CC(CC(C3)C1)C2)c1ccccc1 | -23.5
O=C(Nc1cc(Cl)ccc1-n1cncn1)c1ccc([N+](=O)[O-])o1 | -22.4
COC(=O)C1C(=O)C2=C(CC1C)NC(=O)CC2c1ccc(F)cc1 (centres unmarked) | 18.6
COc1cc2nc(-c3ccc(Br)o3)oc(=O)c2cc1OC | 13.3
COc1ccc([N+](=O)[O-])cc1NC(=O)C1CCCCC1C(=O)O (centres unmarked) | 3.39
CC(OC(=O)/C(C#N)=C/c1ccc(N(C)C)cc1)C(=O)N(C)Cc1ccccc1 (centres unmarked) | -0.266
Cc1cc(C(=O)Nc2ccc3c(c2)OCCO3)c2ccccc2n1 | 18.4
COc1ccc(N2CC(C(=O)NCCc3ccc(Cl)cc3)CC2=O)c(OC)c1 (centres unmarked) | -36.9

Compound | hERG current change (%, negative = inhibition) at 10uM [%]
CN(C1CCCCC1)S(=O)(=O)c1cccc(C(=O)OCC(=O)NC2CCCc3ccccc32)c1 (centres unmarked) | -13.9
S=C(NCCc1ccccc1)Nc1ccc(Cl)cc1 | 7.16
N#Cc1nc(Cl)c(Cl)c(NN)c1Cl | 15.2
Cc1ccc(-c2csc3ncnc(SCC(=O)c4ccc5c(c4)OCCO5)c23)cc1 | 8.67
O=C(CN1C(=O)NC2(CCCc3ccccc32)C1=O)Nc1cc(F)ccc1F (centres unmarked) | 5.45
CCCCCNc1c(C(=O)OCC)c(=O)[nH]c2ccccc12 | -11.7
C=CCOc1ccc(/C=C2\SC(=S)N(CCC(=O)O)C2=O)cc1 | 14
COc1ccc(C(c2sc3nc(C)nn3c2O)N2CCC(C(N)=O)CC2)cc1OC (centres unmarked) | -6.51
CC(=O)N1CN(C(C)=O)CN(C(C)=O)C1 | 3.72
Cc1ccc(NC(=S)N=Nc2c(O)[nH]c3ccccc23)cc1 | 9.41
S=C(NCc1ccccc1)Nc1ccc2cn[nH]c2c1 | -7.58
CCOC(=O)C1(Cc2ccccc2)CCCN(Cc2ccncc2)C1 (centres unmarked) | -17.4
CCc1cccc(NC(=O)Cc2ccc(OC)c(OC)c2)c1 | 5.57
CCC1CCCCN1C(=O)CSc1nnc(-c2ccco2)o1 (centres unmarked) | 4.11
COc1cc(C(=O)NC2CCCc3c2cnn3-c2ccccc2F)cc(OC)c1OC (centres unmarked) | 11.4
Cc1nn2c3c(cnc2c1-c1ccccc1)C(=O)CCC3 | 11.5
CCOC(=O)c1ccc(N2CSC3=C(C#N)C(c4ccc(OC)cc4OC)CC(=O)N3C2)cc1 (centres unmarked) | 6.82
c1ccc(Cc2nnc3sc(Nc4ccccc4)nn23)cc1 | -1.51
COc1ccc(/C=N/n2c(=O)[nH]c3c([nH]c4ccc(Br)cc43)c2=O)cc1CN1CCOCC1 | 5.45
Cc1ccc2cc(CN(C(=O)c3ccco3)c3cccc(C)c3C)c(=O)[nH]c2c1 | 2.34
O=C(Nc1nc2ccccc2s1)c1ccccc1[N+](=O)[O-] | 8.98
COc1ccc(CCNC(=O)C2(C)CCC(=O)N2Cc2ccc(F)cc2Cl)cc1OC (centres unmarked) | 12.1
Cc1cc(-c2nn(-c3ccccc3F)cc2CN2CCN(c3ccncc3)CC2)c(C)s1 | -94.3

Compound | hERG current change (%, negative = inhibition) at 10uM [%]
CCOC(=O)Nc1ccc2c(c1)N(C(=O)C(C)N1CCCC1)c1ccccc1CC2.Cl (centres unmarked) | -60.2
CC1CC(=O)Nc2ccccc2N1C(=O)Nc1ccc(F)cc1F (centres unmarked) | 9.36
NC(=O)c1ccc(NC(=O)COC(=O)C2CC(=O)N(Cc3ccccc3)C2)cc1 (centres unmarked) | -19
CCOC(=O)N1CCN(C(=O)CN2C(=O)NC(c3ccccc3)(c3ccccc3)C2=O)CC1 | -16.8
CSc1ccccc1C(=O)N1CCC2(CC1)CC(=O)c1ccccc1O2 | -61
C/C(=N\NC(=O)c1ccoc1C)c1ccc(Br)s1 | 3.5
c1ccc(C2Oc3ccccc3C3CC(c4cccs4)=NN32)cc1 (centres unmarked) | 3.71
O=C(O)c1cccc(COc2ccc(CO)cc2Cl)c1 | -2.55
O=C(O)CC(Cc1ccc(Cl)cc1)C(=O)Nc1cc(Cl)ccc1Cl (centres unmarked) | 21.5
CCNC(=S)N(Cc1cc2cc(C)c(C)cc2[nH]c1=O)C1CCCC1 | -5.42
O=C(/C=C/c1ccc(Cl)cc1)NC(=S)Nc1ccc(N2CCOCC2)c(Cl)c1 | -11.7
CN(C(=O)c1ccc(OC2CCN(C(=O)c3cccnc3)CC2)cc1)C1CCCCC1 | -15.4
O=C(C1CCN(S(=O)(=O)c2ccc(F)cc2)CC1)N1CCCC(C(F)(F)F)C1 (centres unmarked) | -17.5
COc1ccc(NC(=O)C2CC(=O)N(c3cccc(C)c3C)C2)cc1 (centres unmarked) | -0.228
O=C(COC(=O)c1ccc(F)cc1F)NCCC1=CCCCC1 | 10.6
CNC(=O)c1cn(-c2ccccc2)c(=O)c2ccccc12 | -1.63
CCOC(=O)c1nnc(-c2ccccc2)nc1Sc1ccccc1Cl | 8.66
CC(=O)N1CCc2cc(NS(=O)(=O)c3cccs3)ccc21 | -2.13
COc1ccc(-c2cc3nc(C)cc(N)n3n2)cc1 | 3.53
CCc1ccc(NC(=O)COc2cccc(-n3cnnn3)c2)cc1 | -68
O=C(Cc1c(F)cccc1Cl)NNC(=S)Nc1ccc(S(=O)(=O)Nc2ncccn2)cc1 | 19.4
S=C(NCc1ccccc1Cl)NC1CCCC1 | 7.24
Nc1ncnc2nc(SCc3ccccc3)[nH]c12 | -15.3

Compound | hERG current change (%, negative = inhibition) at 10uM [%]
CO/N=C(/COc1ccc(F)cc1)c1ccc(OC)cc1 | 20
COc1ccc(CCNC(=O)c2ccc(NS(=O)(=O)c3c(C)noc3C)cc2)cc1OC | -1.45
Cc1ccc(-n2c(=O)[nH]cc(C(=O)Nc3ccc4c(c3)OCCO4)c2=O)cc1 | 18.3
CC(C)(C)n1nnnc1C(c1cccnc1)N1CCOCC1 (centres unmarked) | -6.29
CCN1CCN(CC(O)COc2cccc(OC)c2)CC1.Cl (centres unmarked) | 3.43
CCN(CC)Cc1ccccc1CNC(=O)c1cccc(S(=O)(=O)Nc2ccc3c(c2)OCO3)c1 | -71.3
COC(=O)C1CCN(C(=O)c2ccc3nc(-c4cccc(OC)c4)oc3c2)CC1 | -9.82
O=C(CN1C(=O)C2CC=CCC2C1=O)Nc1ccc(S(=O)(=O)Nc2nccs2)cc1 (centres unmarked) | 5.93
CCc1cc(C(=O)NNC(=S)Nc2cccc(C)c2)cs1 | 3.09
COc1cccc(C(c2nnnn2Cc2ccccc2)N2CCN(C3CCCC3)CC2)c1OC.Cl (centres unmarked) | -32
CCCN1CN=C(Nc2nc3ccccc3o2)NC1 | 4.33
N=c1oc2cc(O)ccc2cc1C(=O)Nc1ccc(F)cc1 | 22
Cc1ccc(C(=O)N(C)Cc2ccccc2)cc1S(=O)(=O)N1CCOCC1 | -12.8
Cc1ccc2cc(CN(CCCN(C)C)C(=S)NCc3ccccc3)c(=O)[nH]c2c1C | -50.3
S=C(c1c[nH]c2ccccc12)N1CCOCC1 | 23.5
CC(C)C(NS(=O)(=O)c1cccs1)C(=O)NCc1ccc2c(c1)OCO2 (centres unmarked) | -12
CCOc1ccccc1NC(=O)CSC1=NN2CCCC(=O)N=C2S1 | -2.8
CCCOP(=O)(c1ccc(N(C)C)cc1)C(Nc1ccccc1)c1ccc(C)cc1 (centres unmarked) | -30.8
O=C(/C=C/c1ccco1)NC(=S)Nc1ccc(O)c(-c2nc3ccccc3s2)c1 | 13.2
CCN(Cc1ccccc1)C(=O)COC(=O)c1cnc(C)cn1 | 27.8
